Some entries of the source have several records that differ or are many. Only these are listed. There may be further records. Values that stand side by side repeat one measurement (runs, samples, wells, individuals or studies).
System: 171881-019-R-J1-PDC tumor spheroid viability
Test: Anticancer human tumor 171881-019-R-J1-PDC patient-derived invasive breast carcinoma cell line growth inhibition [PI3K]
Conditions: spheroids with HUVEC and MSC; for viability, T/C: stronger effect = lower value; for IC50: compound alone
Description: Combinatorial screen of targeted agents with the PI3K inhibitors inavolisib, alpelisib, duvelisib, and copanlisib in multi-cell type tumor spheroids
A high-throughput screen of multi-cell type tumor spheroids was designed to identify active combinations of targeted small molecules and PI3K pathway inhibitors. Complex spheroids include a stromal component modeled by human endothelial cells (HUVEC) and fibroblasts modeled by human mesenchymal stem cells (MSCs). The concentration ranges selected for each drug and investigational agent were based upon clinically achievable concentrations if the clinical Cmax of the agent was known.
Compounds. The drugs and investigational agents: inavolisib (NSC800729), alpelisib (NSC765974), duvelisib (NSC772469), copanlisib (NSC816437), ipatasertib (NSC767898), afuresertib (NSC778305), talazoparib (NSC767125), sapanisertib (NSC764658), selumetinib (NSC741078), tovorafenib (DAY101, NSC766906), vemurafenib (NSC761431), ravoxertinib (NSC781343), sotorasib (NSC818433), MRTX1133 (NSC 836407), abemaciclib (NSC 768073), palbociclib (NSC758247), venetoclax (NSC 766270), SY5609 (NSC837396), enzalutamide (NSC755605), and darolutamide (NSC825331), were obtained from the National Cancer Institute (NCI) Developmental Therapeutics Program Chemical Repository. The FDA-approved anticancer drug set is available from the NCI Developmental Therapeutics Program. […] The stock solutions were prepared in dimethyl sulfoxide (DMSO, Sigma-Aldrich, St. Louis, MO, cat. D2650) at 800-fold the tested concentration and stored at -70 degrees C prior to their use. All drugs and investigational agents were tested over a range starting from a high concentration at or near the clinical Cmax and decreasing in half-log increments. If the clinical Cmax for an agent had not been determined, the highest concentration tested was 10 microM.
Cell Culture. All cells were maintained in an incubator at 37 degrees C and 5% CO2 with 95% humidity. The PDC lines were cultured according to standard operating procedures established by the NCI PDMR (https://pdmr.cancer.gov/sops/default.htm). All PDCs were thawed and cultured in Matrigel-coated flasks prepared with a working solution of 1X Ham's F-12 nutrient mix, without supplementation (Invitrogen, Waltham, MA, cat. 11765054), 100 U/mL penicillin-streptomycin (Invitrogen, cat. 15140122), and 2.5% Matrigel (Corning Inc., Corning, NY, cat. 354248) for the first three passages. The 354836-022-R-J1-PDC, 475296-252-R-J1-PDC, and 997726-040-R-J2-PDC lines were cultured in 6A media, which includes advanced DMEM/F-12 (Thermo Fisher Scientific, cat. 12634028), 10 mM HEPES (Thermo Fisher Scientific, cat. 15630080), 1X GlutaMAX supplement (Thermo Fisher Scientific, cat. 35050061), 0.1 mg/mL primocin (InvivoGen, San Diego, CA, cat. ant-pm-2), 10% defined fetal bovine serum, heat inactivated (HyClone Laboratories Inc., Logan, UT, cat. SH30070.03HI), 50% L-WRN conditioned media (ATCC, cat. CRL-3276), 1.25 mM N-Acetyl-L-cysteine (Sigma-Aldrich, cat. A9165), 10 mM nicotinamide (Sigma-Aldrich, cat. N0636), 1X B-27 supplement (Thermo Fisher Scientific, cat. 17504044), 1X N-2 supplement (Thermo Fisher Scientific, cat. 17502048), and 10 microM Y-27632 dihydrochloride (Tocris Bioscience, Bristol, United Kingdom, cat. 1254). The 624824-186-R-J2-PDC line was cultured in 6C/Colon 1B media, which includes all 6A media components plus 50 ng/mL human EGF recombinant protein (Thermo Fisher Scientific, cat. PHG0311). […]
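Also: spheroids exposed to compound for 7 days before viability read.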
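For viability, T/C in this document: 100% = DMSO vehicle-treated spheroids.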

| Compound | viability, T/C (compound alone 0.316 µM) | viability, T/C (compound alone 10 µM) | IC50 | viability, T/C (compound alone 0.000316 µM) |
| --- | --- | --- | --- | --- |
| CNC(=O)c1ccc(N2C(=S)N(c3ccc(C#N)c(C(F)(F)F)c3)C(=O)C2(C)C)cc1F | 99.9, 72.2, 79, 80.5% |  |  |  |
| CC1(C)CCC(CN2CCN(c3ccc(C(=O)NS(=O)(=O)c4ccc(NCC5CCOCC5)c([N+](=O)[O-])c4)c(Oc4cnc5[nH]ccc5c4)c3)CC2)=C(c2ccc(Cl)cc2)C1 | 88.3, 96.6, 70.6, 76% | 16.9, 15.8, 13.7, 70.3% | 4.37 µM, 4.17 µM, 3.89 µM, > 10 µM |  |
| CC(C)n1nc(-c2ccc3oc(N)nc3c2)c2c(N)ncnc21 |  |  |  | 69.5, 80.6, 103, 89.1% |
| C[C@@H](NC(=O)c1ncnc(N)c1Cl)c1ncc(C(=O)Nc2cc(C(F)(F)F)c(Cl)cn2)s1 |  |  | 8.14 µM, 9.67 µM, > 10 µM, 9.83 µM |  |

— PubChem BioAssay AID1963986 (Molecular Pharmacology Branch, DTP, NCI, 2024)
